# Measured values published in the supplement of paper PMC10126150.
# Values marked as one replicate rest on one cluster of the flow cell; about a third of the high ones do not repeat.
# System: ATP
# Assay: switch fluorescence ratio, 500 uM ATP over buffer (Cy3 cluster intensity, sum of 5 cycles each) (fold (ratio)); higher = stronger signal-on switching upon ATP binding; sequences stand for … in TCGTCGGCAGCGTCAGATGTGTATAAGAGACAGTTTTTTTTTTTTTTTTTTTTTTTTT…TC
# Details: aptamer strand: ATP DNA aptamer (quencher-CACCTGGGGGAGTATTGCGGAGGAAGG + anchor), 100 nM annealed; ATP concentration: 500 uM; one replicate
# Method in brief: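 Switching-strand clusters labelled with Cy3 on a modified Illumina MiSeq flow-cell were annealed to 100 nM quencher-labelled ATP aptamer, imaged in selection buffer, and re-imaged after 15 min with 500 uM ATP at 22 °C. This was done over five cycles with NaOH stripping and re-annealing in between. The fluorescence ratio is summed target-cycle over summed buffer-cycle Cy3 intensity per cluster, averaged per switch-domain sequence, excluding clusters outside 100-1000 RFU.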
# 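Also: ATP exposure 15 min at 22 °C before imaging.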
row,Sequence,switch fluorescence ratio
1,TCATAAACGC,1.08
2,AATGGTAGTT,0.992
3,TTTGGAACGC,1.1
4,AAATCTACTA,1.03
5,TCATGGAAA,1.01
6,GTGAGGAAGA,1.03
7,CGTAGGCGTC,0.981
8,ATTTGCCAAT,0.979
9,ACGGTGTATC,1.04
10,TTTAAACGCG,0.964
11,ATCCGTTAGG,0.958
12,ACCGAGGGCG,0.983
13,AAGGTAAACG,1.03
14,CTAGGGATTA,1
15,TATGAACGTA,1.02
16,GGCGTCAGCA,0.98
17,GGCATGGATG,0.969
18,CGGAGTACTG,1.15
19,GGTGATAGC,0.99
20,TACTCAGATC,1.02
21,AATGCAGCGC,1.05
22,TCTGGTTAGG,1.03
23,GGAGTTGTAA,1.04

row,Sequence,switch fluorescence ratio
1,TAACTTTAAC,1.02
2,TGGTATCAAG,1
3,GACAACCG,0.966
4,AATTTAGTTC,0.984
5,CTGTCTCTAT,1.04
6,CAGTGGCGAA,1.01
7,GCCGGCTGGG,1.01
8,ATTTTGCTGA,0.943
9,GTATTTTTTA,1.04
10,AGTAAGGCCC,0.995
11,TGCAGCTCTA,0.992
12,TTTAGTACT,0.946
13,GGTATGAGAT,1.03
14,CTTACGTAAC,1.51
15,GGAAATAGAT,0.95
16,CATATCGACA,1.04
17,ATGTATGAGT,0.976
18,CTCACAATGG,2.79
19,GTAAAACCGG,1.01
20,AGCAGGCTAC,1.26
21,GCATATCCTG,0.994
22,CGTTGTTACG,0.933
23,CGTACTACTA,1.11

row,Sequence,switch fluorescence ratio
1,GATCTTTTGG,0.988
2,GTATCAATGC,2.03
3,CATAAGGCGA,1.04
4,TCTTTCATCG,1.08
5,AGCGTAGCTA,1.01
6,CTGTCTAATA,1.02
7,TGGCCCTAAA,1.03
8,TCCTCGAAGT,1.23
9,TTTCCCCGTG,1.22
10,ATTCAAACGC,1.23
11,TGAAGCAAGG,2.33
12,AATTTATAGT,1.01
13,GCTGGTGTGT,1.03
14,AATTCGGATC,0.99
15,GACCCAACGA,1.31
16,GCCGATTGTA,0.967
17,GTTGTGTTGG,1.01
18,CCCAATTCGT,1.06
19,ACTGCGAGTG,1.04
20,TCAAGACTAT,1
21,CGTCGCGTGC,0.971
22,AGAACAGCAA,1.45
23,GGCGAAATAT,1.1

row,Sequence,switch fluorescence ratio
1,TAGTCCACGT,1.05
2,CCCTATGCTG,1.16
3,CTTAGAAGC,0.966
4,AGCTAGAGTG,1.03
5,TTCGAACTGG,1.01
6,GTATGTCCTC,1.02
7,GTCCTGCCCG,1.02
8,TCAGTCCAC,1
9,CCCTTACATA,1.07
10,GGTGCCGAGG,0.972
11,ACAACCATAT,1.02
12,TTAGCTAACC,1.01
13,TTTCAGAGCG,0.999
14,TTATGCCAGG,1.07
15,ATATTGAACC,1.01
16,GTAAATAGTA,0.984
17,AGACATAAGT,1.01
18,GAAATCTTCC,2.82
19,AGTATGCGTA,0.999
20,CAGCGTTGCC,0.912
21,GACATCGCAC,1.89
22,TCTTTTTAGA,1.02
23,TAATATGCGA,1.02

row,Sequence,switch fluorescence ratio
1,GACGCGTCGG,0.955
2,GCATCAGAGT,0.967
3,GCAAAACGAC,2.8
4,TGTAGGGCTC,1.05
5,CTCCATGCGG,1.04
6,TTTAGGCTC,1.04
7,AATCCGCGCG,1.07
8,CTTTTAGGTC,0.983
9,ATTGTTAGAA,1.02
10,AGGAGGTCGT,1
11,AATAAGCGC,1.03
12,GCAGCTCAGT,0.942
13,CGTGAACACA,1.06
14,AGCGTAGG,0.995
15,CATGTGACTC,0.991
16,GTTAAATACG,1.59
17,ACCAGTCTT,0.953
18,GGCACGGTAG,1.02
19,ACATGACTAT,1.1
20,TTAGAGTGGC,0.977
21,GAAGTGCCCT,1.04
22,CAGGTCTACT,1.01
23,CTCAATGGTT,1.01

row,Sequence,switch fluorescence ratio
1,CTCAGGTCCG,0.99
2,AGCTAACCGC,1.02
3,GACCAGCGCA,1.04
4,AGGCGGAAG,1.02
5,CCGGTTCGAA,1
6,AGTTCCAGA,0.951
7,CCCGTAATTG,1.65
8,AGGTATGCAT,1.04
9,AAGGCTACCG,1
10,TCCTCATTGT,1.02
11,TCTCAACGAA,1.02
12,AGACGATTTA,1.02
13,CCAACTTACG,1.4
14,ATTATTTCG,1.04
15,TCTAGGGTTT,1.01
16,GGTATTTTCA,1.03
17,CGATAAAGTG,0.957
18,GTGTCAATCT,1.02
19,TCTCGGCCCC,1.07
20,GCGGTGTCGC,0.974
21,TAAGGCCATG,0.978
22,ACGTCTACGT,1.05
23,TCAGAACGGA,1.06

row,Sequence,switch fluorescence ratio
1,AGTGTGGCCG,1.02
2,TAGTCGTACG,1
3,AAGTATACTG,1.05
4,TGTACATTTT,1.03
5,TCGCAGTGG,1.25
6,AAGACTCTGT,1.03
7,CTCATCGGGA,1.01
8,CGGATCAAG,0.996
9,TACTTGTGAG,0.993
10,CGTAGAGTG,0.937
11,GGTTCTCCTT,1.01
12,GCTATGTATA,0.987
13,TGCGCTTGTA,0.997
14,GTTTCACTTT,0.978
15,ATAAATTCTC,0.99
16,ACGTACTTCT,1.51
17,CCATTATGTT,0.977
18,AGCTTATAGC,0.969
19,CGAAACAAAG,1.05
